# In PubChem BioAssay (NCATS):
# The shares of active, inactive and inconclusive entries below differ from those in the screen. For some assays here: Potencies of inconclusive entries are left out as doubtful fits. Active and inactive are the calls of the source. Unless noted, calls come from the whole dose curve; as a rule, active = well fitted curve in the direction sought with a large enough effect; inconclusive = small, poorly fitted or top-dose-only effect, or another doubt; inactive = no such curve, though single readings can be large; an effect the other way counts as inactive or inconclusive.
# How the values were obtained:
# [1] = tested on: Zika virus NS2B-NS3 protease; assay: Primary screen GU AMC qHTS for Zika virus inhibitors (AID 1347154)
# Outline: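 Unlinked Zika NS2B hydrophilic domain–NS3 protease complex at 25 nM in 10 mM Tris-HCl pH 8.0, 0.01% Tween 20, with an AMC peptide substrate. Fluorescence change (340/450 nm) over 15 min at room temperature, normalized to controls, fitted to 4-parameter Hill.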
# [2] = target: Mitogen-activated protein kinase 10 (Mus musculus) (UniProt Q61831); assay: JNK3 AlphaScreen Assay (AID 530; active = well fitted curve in either direction with a large enough effect, not every such curve was filed as active; inconclusive = small, poorly fitted or top-dose-only effect, or another doubt); conditions: JNK3 lysate, c-Jun phosphorylation; activity change, negative = inhibition: at 57.1 µM (top of the series)
# Outline: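 qHTS format: compounds tested as titrations against IL-1beta/TNF-alpha-activated HepG2 lysate JNK3 with biotin-GST-cJun substrate and 10 uM ATP at room temperature. Loss of anti-phospho-cJun AlphaScreen signal indicates inhibition.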
# [3] = target: Cytochrome P450 2C9 (Homo sapiens) (UniProt P11712); assay: qHTS Assay for Inhibitors and Substrates of Cytochrome P450 2C9 (AID 883)
# Outline: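 Human CYP2C9 (10nM) with Luciferin-H at 100uM (its KM) in 25mM KPO4; compound preincubated 10 min at 37C, then NADPH regeneration for 60 min at 37C. Luciferin read by luminescence after detection reagent; normalized to 57uM sulphaphenazole as full inhibition.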
# [4] = target: Ubiquitin carboxyl-terminal hydrolase 1 (Homo sapiens) (UniProt O94782); assay: Inhibitors of USP1/UAF1: Pilot qHTS (AID 504865)
# Outline: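 Enzyme-free wells gave the negative control, while test wells held 1nM USP1/UAF1 preincubated with compound for 15 min at room temperature. Ub-Rho at 150nM final started the reaction, and fluorescence at 480/540 nm was recorded kinetically.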
# [5] = qHTS to identify inhibitors of the type 1 interferon - major histocompatibility complex class I in skeletal muscle: primary screen against the NCATS Mechanism Interrogation Plate v5.0 (MIPE) Libary (AID 1347411); conditions: iHSKM cells + IFN-b, HiBiT-tagged MHC-I luminescence, 24 h; activity change, negative = inhibition: at 45.8 µM (top of the series)
# Outline: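 Cells were genome-edited human myoblasts carrying a HiBit tag on endogenous HLA-B. They were treated with IFN-beta (4.0 ng/ml) and titrated compounds (top 46 uM) for 24 hrs before lytic HiBiT detection.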
# [6] = Primary qHTS for inhibitors of nuclear receptor binding SET domain protein 2 (NSD2) in an isogenic RCH-ACV NSD2 p.E1099K mutant (9B) (AID 1645876)
# [7] = Primary qHTS for inhibitors of nuclear receptor binding SET domain protein 2 (NSD2) in an RCH-ACV wild type WT cells (2C) (AID 1645877)
# [8] = qHTS for differential inhibitors of proliferation of Plasmodium falciparum line 3D7 (AID 1876)
# [9] = target: RecQ-like DNA helicase BLM (Homo sapiens) (UniProt P54132); assay: qHTS Validation Assay for Inhibitors of Bloom's syndrome helicase (BLM) (AID 2364)
# Outline: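 50 nM BLM preincubated 15 min at room temperature with compound in pH 8.0 Tris buffer containing 2.5 ug/ml poly(dI-dC); started with 200 nM TAMRA/BHQ-2 forked duplex and 2 mM ATP (final). Unwinding read as TAMRA fluorescence increase, two reads 2 h apart.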
# [10] = target: ATP-dependent 6-phosphofructokinase (Trypanosoma brucei brucei) (UniProt O15648); assay: qHTS Validation Assay to Find Inhibitors of T. brucei phosphofructokinase (AID 485368)
# Outline: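 Activity was read as ADP production by luminescence (ADP-Glo) after 45 min at room temperature. The enzyme was 1.25nM PFK in 0.1M TEA pH 8.0 with 0.5 mM F6P, 0.1mM ATP and 5 mM MgCl2. Compounds were titrated up to 57 uM and % activity normalized to no-enzyme and full-enzyme controls.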
# [11] = target: D(1A) dopamine receptor (Homo sapiens) (UniProt P21728); assay: HTS Assay for Allosteric Agonists of the Human D1 Dopamine Receptor: Primary Screen for Antagonists (AID 488983)
# Outline: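 Screening of inducible HEK293 T-REx D1 cells: compound first, EC80 dopamine 180 s later, each phase read kinetically for calcium over 180 s.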
# [12] = target: ATPase family AAA domain-containing protein 5 (Homo sapiens) (UniProt Q96QE3); assay: Validation screen for small molecules that inhibit ELG1-dependent DNA repair in human embryonic kidney (HEK293T) cells expressing luciferase-tagged ELG1 (AID 493107); conditions: HEK293T ELG1-luciferase level, luminescence, 5-fluorouridine co-treatment, 16 h; activity change, negative = decrease: at 46.1 µM (top of the series)
# Outline: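 Quantitative HTS in HEK293T cells carrying luciferase-tagged ELG1, stimulated with 5-fluorouridine alongside compound for 16 hr. Loss of luciferase signal marks inhibition of ELG1 response.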
# [13] = qHTS Assay for Identifying Gametocytocidal Compounds (AID 743244); conditions: P. falciparum 3D7 stage III-V gametocytes, alamarBlue, 72 h; max response: stronger effect = lower value
# Outline: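 Stage III–V gametocytes of P. falciparum 3D7 were seeded at 20,000 cells/well onto pre-dispensed compounds. After 72 h, 37 °C, 5% CO2, alamarBlue was added for another 24 h.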
# [14] = target: N-terminal Xaa-Pro-Lys N-methyltransferase 1 (Homo sapiens) (UniProt Q9BV86); assay: qHTS Assay for Inhibitors of N-terminal methyltransferase 1 (NTMT1): LOPAC validation of the NTMT1 SAHH-coupled ThioGlo3 Assay (AID 1347143)
# Outline: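 Recombinant human NTMT1 (125nM) was pre-incubated 1 min at room temperature with compounds over a concentration range, then a mix of 100uM SAM, 10uM SAHH and 15uM ThioGlo3 (concentrations in added reagent) was added. ThioGlo3 fluorescence (ex 340/em 450nm) after 30 min was normalized to the initial reading.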
# [15] = qHTS to identify inhibitors of the type 1 interferon - major histocompatibility complex class I in skeletal muscle: primary screen against the NCATS LOPAC collection (AID 1347405)
# Outline: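 Cells: C25cl48 human myoblasts, HiBiT-tagged HLA-B*08:01, stimulated with IFN-beta 4.0 ng/ml. Compounds are titrated 1:4.3 over 7 points from 46 uM final and incubated 24 hrs; endogenous MHC class I is quantified by HiBiT lytic luminescence.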
# Sequence of UniProt Q9BV86 (Q9BV86 whole entry, looked up): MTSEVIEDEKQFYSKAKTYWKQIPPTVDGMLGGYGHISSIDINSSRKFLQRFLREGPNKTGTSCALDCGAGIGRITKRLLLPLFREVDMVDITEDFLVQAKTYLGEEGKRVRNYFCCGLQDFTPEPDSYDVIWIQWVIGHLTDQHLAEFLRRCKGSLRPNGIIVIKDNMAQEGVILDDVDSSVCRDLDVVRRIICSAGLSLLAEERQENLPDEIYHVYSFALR
# Sequence of UniProt P54132 (P54132 whole entry, looked up): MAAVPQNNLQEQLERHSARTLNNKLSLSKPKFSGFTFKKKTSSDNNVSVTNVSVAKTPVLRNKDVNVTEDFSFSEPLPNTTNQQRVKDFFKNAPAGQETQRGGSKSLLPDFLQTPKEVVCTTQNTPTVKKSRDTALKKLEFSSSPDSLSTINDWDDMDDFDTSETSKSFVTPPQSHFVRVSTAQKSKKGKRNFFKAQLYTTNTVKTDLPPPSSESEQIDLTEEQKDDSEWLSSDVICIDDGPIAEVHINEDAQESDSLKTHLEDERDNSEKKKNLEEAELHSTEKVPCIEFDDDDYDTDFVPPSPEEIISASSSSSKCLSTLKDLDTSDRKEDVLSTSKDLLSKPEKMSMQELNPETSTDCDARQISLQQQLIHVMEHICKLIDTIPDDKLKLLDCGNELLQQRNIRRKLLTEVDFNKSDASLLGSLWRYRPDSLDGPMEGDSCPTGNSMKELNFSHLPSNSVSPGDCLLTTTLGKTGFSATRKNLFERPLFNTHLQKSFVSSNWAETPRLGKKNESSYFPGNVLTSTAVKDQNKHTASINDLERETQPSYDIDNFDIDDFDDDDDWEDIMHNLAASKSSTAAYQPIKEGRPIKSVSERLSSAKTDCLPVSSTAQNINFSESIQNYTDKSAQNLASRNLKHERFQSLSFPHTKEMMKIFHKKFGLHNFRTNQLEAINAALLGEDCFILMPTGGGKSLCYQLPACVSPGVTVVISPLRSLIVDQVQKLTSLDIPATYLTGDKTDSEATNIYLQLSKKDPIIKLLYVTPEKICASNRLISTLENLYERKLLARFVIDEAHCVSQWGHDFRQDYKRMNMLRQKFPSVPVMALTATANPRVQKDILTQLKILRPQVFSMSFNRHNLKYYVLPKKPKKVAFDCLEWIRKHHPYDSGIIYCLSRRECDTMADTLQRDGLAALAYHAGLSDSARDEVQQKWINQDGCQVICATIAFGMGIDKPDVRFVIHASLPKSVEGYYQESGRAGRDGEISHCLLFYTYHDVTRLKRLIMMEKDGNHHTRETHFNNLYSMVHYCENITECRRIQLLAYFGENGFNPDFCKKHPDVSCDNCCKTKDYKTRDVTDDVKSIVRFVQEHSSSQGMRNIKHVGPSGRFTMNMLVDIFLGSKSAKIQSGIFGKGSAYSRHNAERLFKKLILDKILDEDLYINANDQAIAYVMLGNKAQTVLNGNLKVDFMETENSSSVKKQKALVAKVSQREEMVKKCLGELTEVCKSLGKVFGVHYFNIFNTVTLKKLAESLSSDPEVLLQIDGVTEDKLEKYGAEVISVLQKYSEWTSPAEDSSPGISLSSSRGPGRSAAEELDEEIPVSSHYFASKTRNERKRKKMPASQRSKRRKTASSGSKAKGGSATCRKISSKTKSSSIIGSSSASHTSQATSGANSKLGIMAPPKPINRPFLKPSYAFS
# Sequence of UniProt P11712 (P11712 whole entry, looked up): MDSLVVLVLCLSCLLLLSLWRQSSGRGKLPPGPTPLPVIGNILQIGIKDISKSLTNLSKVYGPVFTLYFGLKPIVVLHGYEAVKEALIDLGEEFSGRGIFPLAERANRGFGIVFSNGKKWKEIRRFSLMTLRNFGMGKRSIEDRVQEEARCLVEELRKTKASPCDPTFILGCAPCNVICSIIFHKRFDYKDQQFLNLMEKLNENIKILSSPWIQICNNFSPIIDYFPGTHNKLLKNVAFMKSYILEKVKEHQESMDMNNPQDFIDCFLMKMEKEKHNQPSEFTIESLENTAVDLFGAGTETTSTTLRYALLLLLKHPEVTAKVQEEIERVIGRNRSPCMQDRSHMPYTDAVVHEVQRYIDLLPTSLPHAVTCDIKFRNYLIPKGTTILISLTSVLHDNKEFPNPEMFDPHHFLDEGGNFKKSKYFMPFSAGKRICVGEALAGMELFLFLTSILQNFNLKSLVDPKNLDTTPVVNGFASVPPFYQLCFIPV
# Sequence of UniProt O15648 (O15648 whole entry, looked up): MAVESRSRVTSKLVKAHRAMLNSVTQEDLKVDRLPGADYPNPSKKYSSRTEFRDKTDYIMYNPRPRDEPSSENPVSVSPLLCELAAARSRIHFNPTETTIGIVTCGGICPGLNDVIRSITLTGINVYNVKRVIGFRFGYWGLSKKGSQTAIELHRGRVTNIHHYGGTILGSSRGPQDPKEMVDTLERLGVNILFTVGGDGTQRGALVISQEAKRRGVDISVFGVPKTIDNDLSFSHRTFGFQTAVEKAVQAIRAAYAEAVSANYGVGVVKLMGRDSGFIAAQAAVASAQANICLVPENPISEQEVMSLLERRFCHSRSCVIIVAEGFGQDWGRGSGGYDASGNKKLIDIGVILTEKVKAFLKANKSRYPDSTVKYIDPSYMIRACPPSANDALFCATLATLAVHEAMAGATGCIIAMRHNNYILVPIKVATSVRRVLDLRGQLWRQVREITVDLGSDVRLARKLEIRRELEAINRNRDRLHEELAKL
# Sequence of UniProt Q96QE3 (Q96QE3 whole entry, looked up, the tested form may be a part): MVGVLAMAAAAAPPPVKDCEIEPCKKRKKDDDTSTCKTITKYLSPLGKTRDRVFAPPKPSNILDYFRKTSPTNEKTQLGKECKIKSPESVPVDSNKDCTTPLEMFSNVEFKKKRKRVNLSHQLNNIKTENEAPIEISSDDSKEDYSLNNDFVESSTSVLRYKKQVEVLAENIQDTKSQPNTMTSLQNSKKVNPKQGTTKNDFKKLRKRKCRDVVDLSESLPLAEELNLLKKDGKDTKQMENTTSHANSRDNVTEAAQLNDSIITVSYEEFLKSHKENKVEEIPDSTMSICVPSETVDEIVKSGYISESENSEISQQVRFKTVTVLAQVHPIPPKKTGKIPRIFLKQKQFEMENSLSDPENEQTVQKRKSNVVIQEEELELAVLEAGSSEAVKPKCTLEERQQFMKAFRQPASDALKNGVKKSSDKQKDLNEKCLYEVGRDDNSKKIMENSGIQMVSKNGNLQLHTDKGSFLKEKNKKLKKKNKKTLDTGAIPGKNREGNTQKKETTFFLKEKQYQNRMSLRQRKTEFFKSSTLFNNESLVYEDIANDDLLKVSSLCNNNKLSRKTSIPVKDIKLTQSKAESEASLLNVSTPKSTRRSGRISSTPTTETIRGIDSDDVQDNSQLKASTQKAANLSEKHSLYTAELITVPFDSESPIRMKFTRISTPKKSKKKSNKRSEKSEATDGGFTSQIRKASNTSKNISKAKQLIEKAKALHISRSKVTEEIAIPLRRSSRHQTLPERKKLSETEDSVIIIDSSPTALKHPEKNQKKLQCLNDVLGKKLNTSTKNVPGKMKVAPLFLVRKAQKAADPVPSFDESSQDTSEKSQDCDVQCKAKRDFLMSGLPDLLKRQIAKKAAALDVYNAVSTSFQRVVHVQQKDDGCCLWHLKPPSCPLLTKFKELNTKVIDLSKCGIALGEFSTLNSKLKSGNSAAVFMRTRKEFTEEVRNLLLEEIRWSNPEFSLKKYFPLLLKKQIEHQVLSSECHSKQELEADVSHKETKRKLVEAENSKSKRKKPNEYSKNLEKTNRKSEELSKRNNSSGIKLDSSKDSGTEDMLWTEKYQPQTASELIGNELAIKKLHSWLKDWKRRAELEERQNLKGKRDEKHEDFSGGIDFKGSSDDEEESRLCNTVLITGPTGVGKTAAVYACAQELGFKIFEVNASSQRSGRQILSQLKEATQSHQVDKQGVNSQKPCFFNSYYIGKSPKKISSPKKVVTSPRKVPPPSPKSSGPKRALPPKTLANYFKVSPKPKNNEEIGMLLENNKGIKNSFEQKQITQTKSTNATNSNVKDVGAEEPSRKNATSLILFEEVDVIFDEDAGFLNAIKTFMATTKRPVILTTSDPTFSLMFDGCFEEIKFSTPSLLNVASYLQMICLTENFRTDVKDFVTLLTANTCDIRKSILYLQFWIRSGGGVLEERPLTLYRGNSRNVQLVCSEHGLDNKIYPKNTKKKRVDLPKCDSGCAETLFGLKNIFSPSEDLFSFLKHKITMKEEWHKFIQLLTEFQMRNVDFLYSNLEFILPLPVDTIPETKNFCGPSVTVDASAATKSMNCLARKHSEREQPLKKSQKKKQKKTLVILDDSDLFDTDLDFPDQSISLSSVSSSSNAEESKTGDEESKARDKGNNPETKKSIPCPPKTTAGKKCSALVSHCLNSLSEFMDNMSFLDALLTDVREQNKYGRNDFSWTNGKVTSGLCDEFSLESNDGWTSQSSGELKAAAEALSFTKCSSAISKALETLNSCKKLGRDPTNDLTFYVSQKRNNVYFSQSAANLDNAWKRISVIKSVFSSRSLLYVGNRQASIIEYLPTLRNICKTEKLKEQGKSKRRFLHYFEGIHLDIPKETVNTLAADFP
# Sequence of UniProt P21728 (P21728 whole entry, looked up): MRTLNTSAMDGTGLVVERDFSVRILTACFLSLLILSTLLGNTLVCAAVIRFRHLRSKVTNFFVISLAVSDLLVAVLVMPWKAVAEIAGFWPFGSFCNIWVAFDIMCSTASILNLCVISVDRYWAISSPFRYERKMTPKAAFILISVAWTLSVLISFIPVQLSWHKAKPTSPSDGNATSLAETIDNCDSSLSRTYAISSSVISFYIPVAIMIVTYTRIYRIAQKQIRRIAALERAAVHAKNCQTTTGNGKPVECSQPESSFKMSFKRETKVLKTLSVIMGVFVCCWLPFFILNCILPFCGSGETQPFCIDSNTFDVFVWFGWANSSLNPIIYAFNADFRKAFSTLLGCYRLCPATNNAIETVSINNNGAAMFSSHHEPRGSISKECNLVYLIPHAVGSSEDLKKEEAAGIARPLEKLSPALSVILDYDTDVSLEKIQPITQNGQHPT
structure (smiles),measurement,setting,value
Cc1nnc2ccc(-c3cccc(C(F)(F)F)c3)nn12,Potency,[1],"inconclusive [inhibitor, partial curve]"
O=C(O)C1=CCCN(CCOC(c2ccc(C(F)(F)F)cc2)c2ccc(C(F)(F)F)cc2)C1,Potency,[2],"inconclusive [activator, full curve, poor fit]"
same,Potency,[3],active: 2.51 µM
same,Potency,[4],inactive
same,Potency,[1],"inconclusive [inhibitor, single point]"
same,"activity change, negative = inhibition",[5],inconclusive: -35.2% [inhibitor]
same,Potency,[6],"inconclusive [inhibitor, partial curve, poor fit]"
same,Potency,[7],"inconclusive [inhibitor, partial curve, poor fit]"
CC(n1cc(C[C@H](N)C(=O)O)c2ccccc21)n1cc(C[C@H](N)C(=O)O)c2ccccc21,Potency,[1],"inconclusive [inhibitor, single point]"
C[C@H](Cc1ccc2c(c1)OC(C(=O)O)(C(=O)O)O2)NC[C@H](O)c1cccc(Cl)c1,Potency,[8],inactive
same,Potency,[9],inactive
same,Potency,[10],"inconclusive [falling, single point]"
same,Potency,[11],inactive
same,Potency,[12],inactive
same,max response,[13],inactive: 13.1%
same,Potency,[14],inactive
same,Potency,[15],inactive
